Measurements from the supplement of paper PMC3334620.
Over roughly 33,000 sequences, “E-score (-0.5 to 0.5)” has its median near -0.016; the highest 2% begin near 0.32. This is one part of the list.

molecular target: T1, Stp1 (UniProt B3LFK1); assay: PBM E-score (8-mer binding enrichment) (E-score (-0.5 to 0.5)); higher = stronger / more preferred TF binding; most listed sequences are background and not binding sites; conditions: protein concentration: 200 nM; construct: GST-full length
T1 sequence: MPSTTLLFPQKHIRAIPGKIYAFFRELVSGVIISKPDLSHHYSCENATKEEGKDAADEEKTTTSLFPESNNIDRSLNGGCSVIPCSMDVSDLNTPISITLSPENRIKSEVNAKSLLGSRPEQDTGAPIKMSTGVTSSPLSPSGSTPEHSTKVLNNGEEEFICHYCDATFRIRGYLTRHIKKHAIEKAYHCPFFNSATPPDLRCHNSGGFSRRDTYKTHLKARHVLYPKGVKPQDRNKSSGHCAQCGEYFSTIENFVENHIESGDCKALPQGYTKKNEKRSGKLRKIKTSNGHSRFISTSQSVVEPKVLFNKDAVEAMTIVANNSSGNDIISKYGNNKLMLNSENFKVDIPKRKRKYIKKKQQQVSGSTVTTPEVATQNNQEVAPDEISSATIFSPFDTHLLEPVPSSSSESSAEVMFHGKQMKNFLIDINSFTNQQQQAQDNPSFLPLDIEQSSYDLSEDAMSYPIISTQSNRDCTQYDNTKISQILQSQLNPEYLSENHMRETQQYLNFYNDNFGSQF
Outline: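 Using PURExpress in vitro transcription/translation, GST-tagged yeast transcription factors were made in full-length or DNA-binding-domain form. These were applied at about 100-200 nM to double-stranded universal all-10-mer Agilent arrays, and bound protein was detected with fluorescent anti-GST. Scans were normalised with masliner before the Universal PBM Analysis Suite assigned E-scores to ungapped eight-base words pooled with their reverse complements.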

| Sequence | PBM E-score |
| --- | --- |
| CCCAATGC | -0.216 |
| AAAGTGAA | 0.0274 |
| ACGAATTA | 0.144 |
| AGACGGAA | 0.106 |
| TCCCTAAA | 0.019 |
| GAGTATAA | 0.231 |
| AACGGTTG | -0.12 |
| CTACTCAC | 0.074 |
| ATTCGGGC | -0.103 |
| ACTCCACA | -0.0355 |
| AACCCGAC | -0.188 |
| CAATCTCC | -0.186 |
| CCTGGTGA | -0.157 |
| AAGTGACT | -0.0651 |
| CGAAGCGA | -0.0584 |
| AAACTCAA | 0.0822 |
| ATGTTTCC | 0.00054 |
| AGAGGGAC | -0.151 |
| CGTGGGTC | -0.153 |
| ACAGCAGT | -0.0354 |
| CGGGCGGC | 0.31 |
| GCCAGAGC | -0.271 |
| CCCGCCAA | -0.197 |

| Sequence | PBM E-score |
| --- | --- |
| AGCCCAAA | 0.0273 |
| GGCGCAAA | 0.406 |
| ACAAGTTA | 0.0617 |
| ACGTCTGC | 0.0175 |
| AAAAGACG | 0.0808 |
| AGGACGCG | -0.0834 |
| CACGACCG | -0.0682 |
| AGCTCGCG | 0.0554 |
| ACGCCGAG | 0.0836 |
| GAGTCGGA | -0.152 |
| GGTGCAAC | -0.234 |
| ATTGTTAC | 0.134 |
| AGAGCCGG | -0.0632 |
| CGGTTCGA | 0.0995 |
| TAAGGAAA | 0.175 |
| ATTATCTC | 0.0957 |
| AGCTTATG | 0.0648 |
| CAGTAGAG | -0.155 |
| CTGGCAAG | -0.0767 |
| GAATTCTC | 0.0702 |
| AGAGCCCA | 0.00925 |
| GATCCACC | -0.21 |
| AACGTGGT | -0.102 |

| Sequence | PBM E-score |
| --- | --- |
| ATACTGGC | -0.284 |
| AGTTGTGC | -0.012 |
| CCATCGGG | -0.196 |
| AGGTGCAG | -0.144 |
| CCGATTCC | -0.0347 |
| GGCTGGTA | -0.184 |
| CCAGTATA | -0.0421 |
| ATCCATAG | -0.218 |
| CCTTAAAA | -0.0621 |
| AGTCTATG | -0.175 |
| TATGACGA | 0.0504 |
| CTGCGGTC | -0.0629 |
| ATCAAGCA | -0.0533 |
| GAAAGCCC | -0.0238 |
| ATGAAGAA | 0.165 |
| GCTCATAC | 0.0921 |
| TGAGTACA | 0.119 |
| ATAAGCAA | -0.0611 |
| GAACCATA | 0.023 |
| CCTTGAAA | 0.064 |
| ATGCGGTG | -0.103 |
| AAGGCACT | 0.323 |
| TGAGACAA | -0.0493 |

| Sequence | PBM E-score |
| --- | --- |
| CTCATTAA | 0.026 |
| TCATTGGA | 0.0619 |
| CCATTGCG | -0.0132 |
| CCCTATGA | -0.0215 |
| GTGCGAGA | 0.0119 |
| CGGTCGAG | -0.133 |
| CTCTCTCC | -0.242 |
| CTCAGTTA | 0.0571 |
| CCGGTAGC | -0.306 |
| AATTAGTA | 0.209 |
| AGTCTCTA | -0.289 |
| CGAAGAAC | 0.0715 |
| GCAGGAAA | 0.00509 |
| TGATGAAA | 0.0834 |
| GAGGACGA | 0.0252 |
| ACACCTCG | 0.0334 |
| ATTGCACG | 0.184 |
| CTCCCTGC | -0.293 |
| ATAGTATA | 0.0334 |
| AATCGTAC | 0.12 |
| AATAGGAC | -0.208 |
| GCTTTATA | -0.00101 |
| GACCGACA | -0.0307 |

| Sequence | PBM E-score |
| --- | --- |
| GCAATAAC | 0.0245 |
| CATGTACG | 0.16 |
| ACTCAATA | 0.0947 |
| GAATCGAA | 0.11 |
| AAAATGGA | 0.17 |
| CAGTCAGC | -0.0941 |
| CTTCAAAA | 0.0759 |
| AGCGTCTA | -0.244 |
| GTCCGTCA | -0.0524 |
| ACACCGAA | 0.0644 |
| AGAAACCT | -0.144 |
| ACGTGACA | -0.0187 |
| ACTGGACA | -0.219 |
| ACTACTCT | 0.00993 |
| GACCGAGC | -0.228 |
| GCATGGAA | 0.115 |
| AATGTATA | 0.0893 |
| CAGCGTTC | 0.0494 |
| GACCAGCC | -0.259 |
| CTGCTGAA | -0.0177 |
| AGGGGTCG | -0.314 |
| CTGTCGTC | 0.0462 |
| ATGAAACA | 0.00811 |

| Sequence | PBM E-score |
| --- | --- |
| AGCAGCAC | -0.00705 |
| TACAACTA | 0.145 |
| GGATGACC | -0.226 |
| CCGTGCAA | 0.325 |
| AGAGTAAG | 0.0488 |
| AGTGTCAC | -0.0482 |
| AACACTAT | 0.185 |
| TCAAGTCA | -0.0911 |
| AAAGGCGC | 0.402 |
| CTCGCACC | -0.204 |
| AACCAGGC | -0.126 |
| TCGTGAGA | 0.0176 |
| AGGCAACC | -0.131 |
| ATTAAAAA | 0.271 |
| AAGGCGAA | 0.197 |
| ACGTTTTC | 0.0634 |
| AAGAATTC | 0.101 |
| GTCTGAAC | -0.0232 |
| GTCCGGCA | 0.0708 |
| CAGATTGG | -0.203 |
| GTCACGGA | -0.0129 |
| ATATGAAC | 0.164 |
| ACCGGCAT | 0.0121 |

| Sequence | PBM E-score |
| --- | --- |
| CCAGTGAC | -0.315 |
| GCGGACCC | -0.0187 |
| GTACGGCA | 0.48 |
| CAACGGAA | 0.123 |
| CACAAATG | 0.0609 |
| ACTAGACG | 0.157 |
| AGAGAGCG | -0.0278 |
| CACCAAGC | -0.0826 |
| CAGTCCCC | -0.241 |
| ATGGGGGC | -0.211 |
| GGTCTGTA | -0.159 |
| AAGAAGTA | 0.0506 |
| AAGATACA | 0.155 |
| ATATGGGG | -0.00704 |
| ATAGACAC | 0.0875 |
| TGGACCAA | -0.00151 |
| AGTTCCTC | -0.153 |
| CCAACCGG | 0.00956 |
| CTTCGCCC | -0.1 |
| CATGCAGG | -0.158 |
